Laboratory results: the supplement of paper PMC9151546
Repeats are few or missing, and single values can be far off.

Assays:
CHO-K1 [1] = experiment: hypodiploid nuclei frequency (% of nucleated events); higher = more hypodiploid events (aneugenic)
Method: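 Flow-cytometric in vitro micronucleus assay (Litron MicroFlow) in CHO-K1 cells in 96-well plates, 19 concentrations (4.5-200 µM, n=1 per concentration). Without S9, cells were exposed for 24 h and sampled at 48 h. With Aroclor 1254-induced rat liver S9, cells were exposed for 3-4 h and sampled at 27-28 h. Read-outs are %MN and %hypodiploid nuclei relative to nucleated events, and relative survival as the nuclei-to-bead ratio versus the 1% DMSO vehicle control (x100).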

CHO-K1 [2] = experiment: micronucleus frequency (% of nucleated events); higher = more micronuclei (genotoxic)
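Wherever hypodiploid nuclei frequency (% of nucleated events) is given: hypodiploid nuclei gated on a flow cytometer with 488 nm excitation after SYTOX Green staining, cultures at 37 °C, positive controls vinblastine without S9 and cyclophosphamide with S9.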
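Wherever micronucleus frequency (% of nucleated events) is given: cells lysed with nuclei stained by SYTOX Green, then micronucleus-gated events counted against nucleated events by flow cytometry with 488 nm excitation.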

Cc1ccc(O)cc1C [3,4-Dimethylphenol]
hypodiploid nuclei frequency [%], CHO-K1 [1]
Conditions | S9 metabolic activation: with S9, exposure time: 3-4 hours | S9 metabolic activation: without S9, exposure time: 24 hours
concentration: 4.53 (µM) | 0.1 | 0.66
concentration: 5.66 (µM) | 0.16 | 0.48
concentration: 7.07 (µM) | 0.28 | 0.52
concentration: 8.84 (µM) | 0.26 | 0.48
concentration: 11.1 (µM) | 0.34 | 0.5
concentration: 13.8 (µM) | 0.22 | 0.78
concentration: 17.3 (µM) | 0.24 | 0.44
concentration: 21.6 (µM) | 0.26 | 0.74
concentration: 27 (µM) | 0.44 | 0.7
concentration: 33.7 (µM) | 0.28 | 0.76
concentration: 42.2 (µM) | 0.34 | 0.76
concentration: 52.7 (µM) | 0.28 | 0.58
concentration: 65.9 (µM) | 0.14 | 0.72
concentration: 82.3 (µM) | 0.2 | 0.9
concentration: 103 (µM) | 0.16 | 1.04
concentration: 129 (µM) | 0.34 | 1.3
concentration: 161 (µM) | 0.34 | 1.68
concentration: 201 (µM) | 0.34 | 2.02

CC(=O)Nc1ccc(O)cc1 [Acetaminophen]
Conditions | hypodiploid nuclei frequency, CHO-K1 [1] [%] | micronucleus frequency, CHO-K1 [2] [%]
concentration: 4.5 (µM), S9 metabolic activation: with S9, exposure time: 3-4 hours | 0.28 | 2.04
concentration: 4.5 (µM), S9 metabolic activation: without S9, exposure time: 24 hours | 0.42 | 1.38
concentration: 5.63 (µM), S9 metabolic activation: with S9, exposure time: 3-4 hours | 0.22 | 1.42
concentration: 5.63 (µM), S9 metabolic activation: without S9, exposure time: 24 hours | 0.44 | 1.68
concentration: 7.04 (µM), S9 metabolic activation: with S9, exposure time: 3-4 hours | 0.34 | 2.64
concentration: 7.04 (µM), S9 metabolic activation: without S9, exposure time: 24 hours | 0.42 | 1.64
concentration: 8.8 (µM), S9 metabolic activation: with S9, exposure time: 3-4 hours | 0.12 | 2.24
concentration: 8.8 (µM), S9 metabolic activation: without S9, exposure time: 24 hours | 0.6 | 1.46
concentration: 11 (µM), S9 metabolic activation: with S9, exposure time: 3-4 hours | 0.26 | 2.08
concentration: 11 (µM), S9 metabolic activation: without S9, exposure time: 24 hours | 0.56 | 1.78
concentration: 13.7 (µM), S9 metabolic activation: with S9, exposure time: 3-4 hours | 0.3 | 2.56
concentration: 13.7 (µM), S9 metabolic activation: without S9, exposure time: 24 hours | 0.72 | 2.28
concentration: 17.2 (µM), S9 metabolic activation: with S9, exposure time: 3-4 hours | 0.32 | 2.44
concentration: 17.2 (µM), S9 metabolic activation: without S9, exposure time: 24 hours | 0.76 | 2.4
concentration: 21.5 (µM), S9 metabolic activation: with S9, exposure time: 3-4 hours | 0.3 | 1.12
concentration: 21.5 (µM), S9 metabolic activation: without S9, exposure time: 24 hours | 0.68 | 1.84
concentration: 26.8 (µM), S9 metabolic activation: with S9, exposure time: 3-4 hours | 0.34 | 2.02
concentration: 26.8 (µM), S9 metabolic activation: without S9, exposure time: 24 hours | 0.48 | 1.8
concentration: 33.6 (µM), S9 metabolic activation: with S9, exposure time: 3-4 hours | 0.22 | 1.78
concentration: 33.6 (µM), S9 metabolic activation: without S9, exposure time: 24 hours | 0.76 | 2.3
concentration: 41.9 (µM), S9 metabolic activation: with S9, exposure time: 3-4 hours | 0.42 | 1.82
concentration: 41.9 (µM), S9 metabolic activation: without S9, exposure time: 24 hours | 0.66 | 1.6
concentration: 52.4 (µM), S9 metabolic activation: with S9, exposure time: 3-4 hours | 0.16 | 1.46
concentration: 52.4 (µM), S9 metabolic activation: without S9, exposure time: 24 hours | 0.88 | 2.02
concentration: 65.5 (µM), S9 metabolic activation: with S9, exposure time: 3-4 hours | 0.3 | 1.14
concentration: 65.5 (µM), S9 metabolic activation: without S9, exposure time: 24 hours | 0.68 | 1.9
concentration: 81.9 (µM), S9 metabolic activation: with S9, exposure time: 3-4 hours | 0.26 | 1.18
concentration: 81.9 (µM), S9 metabolic activation: without S9, exposure time: 24 hours | 0.94 | 1.9
concentration: 102 (µM), S9 metabolic activation: with S9, exposure time: 3-4 hours | 0.22 | 1.8
concentration: 102 (µM), S9 metabolic activation: without S9, exposure time: 24 hours | 0.82 | 2.5
concentration: 128 (µM), S9 metabolic activation: with S9, exposure time: 3-4 hours | 0.32 | 1.58
concentration: 128 (µM), S9 metabolic activation: without S9, exposure time: 24 hours | 1 | 2.1
concentration: 160 (µM), S9 metabolic activation: with S9, exposure time: 3-4 hours | 0.26 | 1.7
concentration: 160 (µM), S9 metabolic activation: without S9, exposure time: 24 hours | 1.12 | 2.86
concentration: 200 (µM), S9 metabolic activation: with S9, exposure time: 3-4 hours | 0.24 | 1.52
concentration: 200 (µM), S9 metabolic activation: without S9, exposure time: 24 hours | 1.2 | 3.92

O=C(c1ccccc1)c1ccccc1 [Benzophenone]
hypodiploid nuclei frequency [%], CHO-K1 [1]
Conditions | S9 metabolic activation: with S9, exposure time: 3-4 hours | S9 metabolic activation: without S9, exposure time: 24 hours
concentration: 4.5 (µM) | 0.28 | 0.34
concentration: 5.63 (µM) | 0.18 | 0.48
concentration: 7.04 (µM) | 0.2 | 0.54
concentration: 8.8 (µM) | 0.12 | 0.84
concentration: 11 (µM) | 0.24 | 0.74
concentration: 13.7 (µM) | 0.18 | 0.66
concentration: 17.2 (µM) | 0.22 | 0.84
concentration: 21.5 (µM) | 0.18 | 0.6
concentration: 26.8 (µM) | 0.26 | 0.84
concentration: 33.6 (µM) | 0.2 | 0.76
concentration: 41.9 (µM) | 0.16 | 1.18
concentration: 52.4 (µM) | 0.1 | 1.2
concentration: 65.5 (µM) | 0.22 | 1.1
concentration: 81.9 (µM) | 0.12 | 1.78
concentration: 102 (µM) | 0.16 | 2.7
concentration: 128 (µM) | 0.32 | 2.48
concentration: 160 (µM) | 0.3 | 4.5
concentration: 200 (µM) | 0.36 | 5.64
